Results: ChEMBL document CHEMBL4888484, “Replenishing the malaria drug discovery pipeline: Screening and hit evaluation of the MMV Hit Generation Library 1 (HGL1) against asexual blood stage Plasmodium falciparum ,using a nano luciferase reporter read-out” (2022)
In all, about 150,000 compounds went through this assay and about 540 (0.36%) showed an effect of 50% or more. Some of the results follow.

These compounds were tested on Plasmodium falciparum (assay: Primary screen in NF54 nanoGlo assay, in single point, at 2uM, 72h; a lower Z score goes with more inhibition). Details: timepoint 72 hour.
Type: functional, Erythrocyte

SMILES | % Inhibition | Z score
C[C@H]1C[C@@H](CO)CCN1C(=O)c1ccc(-c2ccccc2)[nH]1 | -14% | 1.84
Cc1ncc(CNC(=O)[C@@H]2CCCN2C(=O)OCc2ccccc2)o1 | -10% | 1.3
CCN1CC[C@H](NC(=O)N(C)Cc2ccc(-c3ccccc3)cc2)C1 | 3% | -0.43
OCc1cc2n(n1)CCN(Cc1c[nH]nc1C1CCCCC1)C2 | -1% | 0.13
Cc1ccc(CNC(=O)c2cc(C)on2)c(N(C)C)c1 | -1% | 0.14
CN1CC2(CCN(C(=O)Nc3ccccc3F)CC2)C[C@H]1C(=O)N1CCOCC1 | -5% | 0.6
Cc1cnn(-c2ccncc2NS(=O)(=O)c2cncc(F)c2)c1 | 6% | -0.54
O=C1C[C@]2(NC(=O)Cc3ccc(-n4cnnc4)cc3)CCCC[C@@H]2N1 | -5% | 0.68
COC(=O)c1ccccc1NC(=O)C[C@@H]1Nc2cccc3cccc(c23)NC1=O | -5% | 0.52
CC(C)c1nnc(NC(=O)C2CCCC2)s1 | 0% | -0.07
Cc1ccc(CN(C)C(=O)NCCc2nc(C3CC3)no2)o1 | -6% | 1.2
COc1ccc(NC(=O)CCC(F)(F)F)cc1O | 5% | -0.65
CN(Cc1ccncc1)C(=O)C1(Cc2ccc(F)cc2)CCOCC1 | -1% | 0.1
CC(C)CN1C[C@@H](C(=O)NCc2cnc3cnccn23)CCC1=O | -6% | 0.9
Cc1cncc(NCc2c(C(C)C)nn(C)c2N2CCOCC2)c1 | -4% | 0.66
CC(=O)NCCC1=CCCN(CCc2cccc3ccccc23)C1 | -16% | 1.86
O=C(c1nnn(-c2ccccc2Cl)c1-c1cccnc1)N1CCN(c2ccccc2)CC1 | -8% | 0.9
CC(=O)N1CCOC1CC(C)CCC=C(C)C (stereo not drawn) | 3% | -0.5
CN(C[C@H]1CCCN2CCCC[C@@H]12)C(=O)Cn1nc(-c2ccccc2F)ccc1=O | -3% | 0.47
O=C1NCCN1C(=O)NC[C@H](OCCO)c1cccs1 | -8% | 1.19
O=C(CCc1cccnc1)N1CC[C@@H](CO)[C@@H](O)C1 | -2% | 0.52
O=C(COc1ccc(Br)cc1)Nc1ccc2c(c1)OCCCO2 | -9% | 0.79
COc1ccccc1-c1c(C)nn(C)c1NC(=O)N[C@@H](C)Cc1cnccn1 | -4% | 0.82
Cc1cc(C)c([C@H]2NC(=O)N(CC3(CO)COC3)C2=O)c(C)c1 | -11% | 1.54
CS(=O)(=O)CCc1nc(C2(c3ccccc3)CC2)nn1-c1ccccc1 | -9% | 0.87
O=C(N[C@H]1CCN(Cc2cscn2)C[C@@H]1O)c1nc2ccccn2c1F | -4% | 0.56
CC(C)c1ccc(CCCC(=O)NC2(C(=O)O)CCC2)cc1 | 4% | -0.53

SMILES | % Inhibition | Z score
COc1ccccc1N1CCN(C(=O)Cn2cc(S(=O)(=O)Cc3ccccc3)c3ccccc32)CC1 | -18% | 2.89
C=C[C@H]1OCCC[C@@H]1NC(=O)Nc1nc(C)no1 | 2% | -0.35
COc1ccc(CC(=O)Nc2cnc(-c3cccnc3)nc2)cc1Cl | -14% | 1.25
CC(C)C[C@H]1CCN(c2ccnc(C(=O)N3CCOCC3)c2)C1 | 2% | -0.16
CN(C)c1nsc(N2CCn3nc([C@H](O)c4ccccc4)cc3C2)n1 | -8% | 0.74
CCn1ncnc1-c1ccc(O)c2ccccc12 | -3% | 0.59
COc1ccc(C(=O)N2C[C@@H]3COCCN3C3(CN(Cc4cncn4C)C3)C2)cc1 | -6% | 0.96
CN1C[C@@H](NC(=O)NCCc2cc(C(F)(F)F)ccn2)CC1=O | -12% | 2.22
Cc1cc(=O)c(C(=O)N2CCCC[C@@H]2CCc2ccccc2)c(C)[nH]1 | -22% | 3.29
O=C(CCNCc1cc2ccccc2nc1N1CCCCC1)NCc1ccccc1 | 18% | -1.56
COc1ccc2c(c1)OC(C)(C)CN(C(=O)Nc1nc(C)cs1)C2 | 2% | -0.35
Cc1csc(NC(=O)C2CCN(C(=O)C3CC3c3ccco3)CC2)n1 (stereo not drawn) | -15% | 2.86
O=C(c1ccncc1)N1CCc2sccc2C1 | -3% | 0.35
Cc1c(Cl)cccc1C(=O)Nc1ccc2c(c1)CCN2C(N)=O | 13% | -1.64
CC[C@@H](C(=O)Nc1cc(Cl)ccc1C)N1C(=O)CCn2nc(C)cc21 | -3% | 0.3
CCc1onc(C)c1[C@@H]1CCCN1S(=O)(=O)c1ccc(Br)cc1 | -9% | 1.2
Cc1cccc(OC[C@H](C)NC2CCN(CC(F)F)CC2)c1 | -8% | 0.69
O=c1[nH]cnc2c(N3CCN(CC(F)F)CC3)nccc12 | -7% | 1.38
c1ccc(C2(c3nnc(-c4ccncc4)o3)CCOCC2)cc1 | 30% | -4.69
CC[C@H](OC1CCCC1)C(=O)NCc1nc(-c2ccccn2)no1 | -11% | 0.96
CC(=O)c1cc(C(=O)N(C)c2cc(Cl)ccc2C#N)ccc1C | -6% | 0.99
CC(C)n1cccc1C(=O)NC[C@H]1CCN(C2CCCCC2)C1 | 11% | -1.41
CON(C)C(=O)[C@@H](NS(=O)(=O)c1ccccc1F)C(C)C | 0% | -0.01
Cc1noc(C)c1CN1CCC(Cn2ccnc2)CC1 | -9% | 1.82
COc1ccc(CN(C(=O)c2cccc(Cl)c2)C2(C(=O)Nc3ccccc3)CCCCC2)cc1 | 7% | -1.29
C=C(C)CN1C(=O)N[C@@]2(CCS(=O)(=O)c3ccc(F)cc32)C1=O | 15% | -1.7
O=C(N[C@H]1CCc2nccn2C1)c1cc2c(F)cccc2s1 | -17% | 2.57
